B1: tRNA (parent)
chain: CUCUCGGUAGCCAAGUUGGUUUAAGGCGCAAGACUUUAAUUUAUCACUACGAAAUCUUGAGAUCGGGCGUUCGACUCGCCCCCGGGAGAUUUUUUCCUCGAGCAA

Variants at the floor of the assay are shown more often than the library holds them.

The data set covers variants of B1. The data set is described as follows: nonsense suppression (GFP-seq) (ratio to wild type); higher = more function; SUP4oc tRNA, yeast GFP reporter sort-seq. The gist of the method: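 Nonsense suppression (GFPSEQ) is the median GFP/RFP ratio of each sorting bin, weighted by the variant's estimated share of cells in that bin and expressed relative to the unmutated parent tRNA. Yeast strains carried genome-integrated variants of an ochre-suppressor tRNA from a library with ~3% random mutations, plus a galactose-driven GFP ochre reporter and RFP, and were grown in raffinose/galactose medium containing 80 mg/L adenine. Cells were sorted into GFP/RFP bins, each bin was Illumina-sequenced (phred ≥30), and variants were kept only with ≥100 reads and ≥30 cells.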
With C3G A13C U70G, the nonsense suppression is no more than 0.026. The same measure for C5U A33G U63C: no more than 0.026. The same measure for A31C G88U: no more than 0.026. The same measure for G6A U17C A60U: no more than 0.026; for A14U A62C C75G G84U: no more than 0.026; for G15U G85C: no more than 0.026.

For the variant U17A, the nonsense suppression was 0.937. Consider C1G C12A G69U G78U, for which the nonsense suppression was no more than 0.026.

With G10U G19C G85C, the nonsense suppression is no more than 0.026. The same measure for C3U U17G A33G U70G: no more than 0.026. On to A23U G32C U57C C81A, for which the nonsense suppression was no more than 0.026. On to G67A U71C, for which the nonsense suppression is no more than 0.026.

Take G19A U57C G61A: the nonsense suppression was no more than 0.026. Regarding U76G G88U, the nonsense suppression is no more than 0.026.

With C5A G19U U20G, the nonsense suppression was no more than 0.026.

For G10C U21A, the nonsense suppression is no more than 0.026. With U4A C82A, the nonsense suppression is no more than 0.026. With C3U U4C G26A C34U G78A, the nonsense suppression is no more than 0.026. As for C34U C75A, the nonsense suppression was no more than 0.026. As for G19C G66A G86A, the nonsense suppression was no more than 0.026. As to G59U, the nonsense suppression was 0.116. A9C C82G: the nonsense suppression is no more than 0.026. Then G65A U70C, with no more than 0.026; and A9U A14U C82U, with no more than 0.026. The same measure for C12U G32A U55A: no more than 0.026. Turning to G10C U35G U58G G59A C68G A74C, the nonsense suppression is no more than 0.026.

As for U16A U35G, the nonsense suppression is no more than 0.026. Regarding C27G A30U A62C C72G C79A, the nonsense suppression is no more than 0.026.

Turning to G25A A33G U71G, the nonsense suppression was no more than 0.026. Turning to A30U C34G A60C G78C, the nonsense suppression is no more than 0.026.

As for U16A C83G, the nonsense suppression was no more than 0.026.

With A9U G61A C72A, the nonsense suppression is no more than 0.026. With C5A U20A C75G, the nonsense suppression is no more than 0.026. Turning to C11U C64U, the nonsense suppression was no more than 0.026. In the case of C27A G32A, the nonsense suppression is no more than 0.026. The same measure for A14G C81A: no more than 0.026; for G26A U55A: no more than 0.026; for G19C C56A G69C C79G: no more than 0.026.

For the variant G10A C75A G85C, the nonsense suppression was no more than 0.026. Regarding C1U C27A A31C G61A, the nonsense suppression is no more than 0.026. On to C72G C79U, for which the nonsense suppression is no more than 0.026.

As to A30C G61A G84U G85C, the nonsense suppression is no more than 0.026. Then A9C G15U, with no more than 0.026.

In the case of A14U C34G G65U G69U, the nonsense suppression is no more than 0.026. For the variant A13U G65C G86U, the nonsense suppression is no more than 0.026. For U21G U35A U57C G69C G73U, the nonsense suppression is no more than 0.026.

For U22A C56G G65A G69A U70C, the nonsense suppression was no more than 0.026. Turning to G59C G73C, the nonsense suppression is no more than 0.026. Then C12A A23C G61U, with no more than 0.026. As for C5U C29U G69C C83G, the nonsense suppression was no more than 0.026. C83A A89G: the nonsense suppression was no more than 0.026.

For C11U C27G A74G, the nonsense suppression was no more than 0.026. The same measure for U16C C27G: no more than 0.026; for C12G C83G: no more than 0.026; for U2G C5A A23C A30C U35C C64A: no more than 0.026. For A13C A23U A30G, the nonsense suppression was no more than 0.026. Turning to A23C G25U C27G C79G, the nonsense suppression was no more than 0.026.

Regarding U4A A33G, the nonsense suppression was no more than 0.026. Regarding A31G G65C, the nonsense suppression is no more than 0.026. Then U8A C11G, with no more than 0.026; and G6A A13C A23C C34U A62G A89C, with no more than 0.026.

In the case of C11A G15U A87G, the nonsense suppression was no more than 0.026.

Consider G66A C72G, for which the nonsense suppression is no more than 0.026. As to A14U G18C G59A, the nonsense suppression is no more than 0.026. For G7U U16A A33G A60C, the nonsense suppression was no more than 0.026. In the case of C11A C34G G78A G88U, the nonsense suppression was no more than 0.026. For U20A G32C A33G C34A, the nonsense suppression was no more than 0.026.

With G6C A60C G69U C79A, the nonsense suppression is no more than 0.026.

For C68U C81A, the nonsense suppression is no more than 0.026. Then U58G C77U, with no more than 0.026; and A33U C56G U57A U58A G73A G78C, with no more than 0.026. Then U57G U63C C64A, with no more than 0.026; and G25A U55A, with no more than 0.026; and G32U A60G, with no more than 0.026. Turning to C3G C68U, the nonsense suppression is no more than 0.026. For C12U G28C A30G C34A C80G C82G, the nonsense suppression was no more than 0.026. Turning to G66A A89C, the nonsense suppression was no more than 0.026. On to G15A G65C G88C, for which the nonsense suppression is no more than 0.026. With A23G A24U C56A C80A, the nonsense suppression is no more than 0.026. Take U8A C56U: the nonsense suppression was no more than 0.026. Then G10U A30C C77U, with no more than 0.026. As to A33U G84C G88C, the nonsense suppression is no more than 0.026.

With G10U C27A G28U U57C A62U A87G, the nonsense suppression was no more than 0.026. In the case of C1U C34A U55C, the nonsense suppression is no more than 0.026. Regarding G6U A31U G69U, the nonsense suppression is no more than 0.026. Turning to U70A U76G, the nonsense suppression is 0.183. As to C5G G25C G69C C80A, the nonsense suppression is no more than 0.026.

For U58G A62U C80A A87U, the nonsense suppression was no more than 0.026. In the case of G6C A33U G67A, the nonsense suppression is no more than 0.026. Consider G28C U55A, for which the nonsense suppression was no more than 0.026. Turning to A9C U16G A30G U58G, the nonsense suppression is no more than 0.026. For the variant A14U A23U, the nonsense suppression was no more than 0.026. For the variant A14G C29U U57G U70C G78U, the nonsense suppression was no more than 0.026. As to G15C A33C, the nonsense suppression was no more than 0.026.

In the case of C12A U21A A89G, the nonsense suppression is no more than 0.026.

G6C U17G G59U U70C G86C: the nonsense suppression is no more than 0.026. Regarding G7U A60U C64A G73C G78C, the nonsense suppression is no more than 0.026. Take A24U C29A A62U C80G: the nonsense suppression was no more than 0.026. As for A24U C72U, the nonsense suppression is no more than 0.026.

Turning to A13C G61A, the nonsense suppression was determined as 0.852. In the case of U20G G85C G88A, the nonsense suppression was no more than 0.026. Then G6C U55C A62C G66U C75G, with no more than 0.026; and U16A U20C, with 0.193. With G7C C27U, the nonsense suppression was no more than 0.026.

As to A30G A33U, the nonsense suppression was no more than 0.026. For C29U G73A, the nonsense suppression amounted to 0.238.

Regarding C27U C29U A54U U76A, the nonsense suppression was no more than 0.026. C12U A24G U76G: the nonsense suppression is no more than 0.026.

As to A24C G28A, the nonsense suppression amounted to 0.952. On to C72G G78A, for which the nonsense suppression is 0.0282.

Consider C5A U16A C79G, for which the nonsense suppression was no more than 0.026.

For U8G U17G G19A A54C, the nonsense suppression is no more than 0.026. Consider G19C C56A U71G A74G, for which the nonsense suppression was no more than 0.026. For A24C G84A G85C, the nonsense suppression is no more than 0.026. Consider U20G A30C C64G G73U, for which the nonsense suppression is no more than 0.026. Take U16G G85C: the nonsense suppression came out at 0.0285. Turning to C5U G65U U76A, the nonsense suppression is no more than 0.026. In the case of A13C U35A, the nonsense suppression is no more than 0.026. In the case of A60C G85C, the nonsense suppression turned out to be 0.0595. Take C3U C11U C75U: the nonsense suppression was no more than 0.026. For the variant C11A G18U U63A, the nonsense suppression is no more than 0.026.

On to C1U U35G G69A U76A, for which the nonsense suppression is no more than 0.026. Turning to A14C G69A, the nonsense suppression was no more than 0.026.

Take G6A G65C G78A: the nonsense suppression is no more than 0.026.

As for C1G U21A A30U, the nonsense suppression is no more than 0.026. G7C U58A C64A U71G: the nonsense suppression is no more than 0.026.

With U4G G19U G61U C82A, the nonsense suppression was no more than 0.026. With A13G G69C C75G G86A, the nonsense suppression is no more than 0.026. As for C1U G10U, the nonsense suppression is no more than 0.026. As to A23C U76G C77A G78A, the nonsense suppression is no more than 0.026.

Consider G19A G28C U63A, for which the nonsense suppression is no more than 0.026.

For G18U C29U A33G U63G, the nonsense suppression was no more than 0.026. C12U A33G U57C: the nonsense suppression was no more than 0.026. For U55A A74G A89C, the nonsense suppression was no more than 0.026. Consider C3G A13U U57C G65A, for which the nonsense suppression was no more than 0.026. For the variant G26A C82A, the nonsense suppression was no more than 0.026.

In the case of C5U A30U U63A C79G, the nonsense suppression is no more than 0.026. Consider C5U A23G G26C G78A, for which the nonsense suppression is no more than 0.026.

For the variant A24G G69A A74C, the nonsense suppression was no more than 0.026. In the case of G6A G15U U22C G26U A31U U58A, the nonsense suppression was no more than 0.026.

Consider C5G A33U G59C, for which the nonsense suppression is no more than 0.026. In the case of U22A A33U A89C, the nonsense suppression is no more than 0.026. Then C68G G85C, with no more than 0.026; and A62G C68U U71C, with no more than 0.026.

On to C1U U16A A31G U58A C77U, for which the nonsense suppression is no more than 0.026.

Turning to U20G G25C, the nonsense suppression was no more than 0.026.

For the variant U4C U22A G86A, the nonsense suppression was determined as 0.552. Consider G10U U21A A74C, for which the nonsense suppression is no more than 0.026. With C1A G10A G78C, the nonsense suppression was no more than 0.026. Then U20C U55C A62G G65U, with no more than 0.026; and C11U A13C C83A, with no more than 0.026. For the variant G7A A23C C56G, the nonsense suppression is no more than 0.026.

On to A60U A87G, for which the nonsense suppression came out at 1.02. For C12U U58G G61C A89C, the nonsense suppression is no more than 0.026. For the variant U2G A13G A60U, the nonsense suppression is no more than 0.026.

With G59U G67C, the nonsense suppression is no more than 0.026. Then C56G G78C G85A, with no more than 0.026; and A62C G69U, with no more than 0.026. Consider A60U, for which the nonsense suppression was 0.984. For the variant A30U U58A G78U, the nonsense suppression worked out at 0.776. Take C12A A54C A62G U63C C75A C80A: the nonsense suppression was no more than 0.026.

Regarding C79U G84U, the nonsense suppression is no more than 0.026. For U16G A30U C64U G69A C80A, the nonsense suppression is no more than 0.026. Regarding U17A A30G, the nonsense suppression was 0.369. Consider G19C A24C, for which the nonsense suppression is no more than 0.026.

Turning to A33G G86A, the nonsense suppression is no more than 0.026. For the variant C27G U57C U58G G66A C68G, the nonsense suppression is no more than 0.026.

The record behind these values is the RNAGym collection of RNA variant scans (doi:10.1101/gad.245936.114).
